Data on 92 compounds can be found in PubChem BioAssay AID463173 (ICCB-Longwood Screening Facility, Harvard Medical School, 2010).

Out of some 52,000 compounds screened, about 4,300 (8.3%) were called active. Rule as the data show it: active = survival mostly below about 52% (no sharp cut-off); inactive = mostly above about 56%. The list shows a part of the results.

The assay deals with DeltatarO mutant. Description: growth inhibition of S. aureus wild type versus tarO mutant, primary screen, teichoic acid synthesis inhibitors, RN4220, OD600 (AID 463173). The note with it: OD600, 18 h, hits give low values, screened at 18.75 µg/mL (by protocol).
On to `Cc1ccc(N2CC(C(=O)Nc3ccc(N(C)C)cc3)CC2=O)cc1Cl` (configuration not stated), for which the survival was inactive: 92%.

As for `CSc1ccc(-c2nnc(NC(=O)c3ccc4c(c3)OCCO4)o2)cc1`, the survival was inactive: 66%.

Regarding `Fc1ccccc1N1CCN(c2nc3ccccc3c3nc(-c4ccccc4)nn23)CC1`, the survival was inactive: 93%.

Take `N#Cc1cc2c(nc1S(=O)(=O)Cc1ccccc1)CCCC2`: the survival is inactive: 114%.

In the case of `CCc1nc2nc(C)cc(Nc3cccc(C)c3C)n2n1`, the survival was inactive: 82%.

In the case of `CCc1ccc(NC(=O)CN2C(=O)C3(SCC(=O)N3c3ccc(F)c(F)c3)c3ccccc32)cc1` (configuration not stated), the survival is inactive: 99%.

For the compound `CC(C)c1ccc(OCC(=O)N(Cc2cccs2)C2CCS(=O)(=O)C2)cc1` (configuration not stated), the survival is active: 51%.

Consider `O=C(CCn1ccc2cc(S(=O)(=O)N3CCCC3)ccc21)NCc1ccccc1Br`, for which the survival is inactive: 89%.

Take `Cc1cccc2cc(CN(C(=O)C3CC3)C3CCCC3)c3nnnn3c12`: the survival was inactive: 87%.

In the case of `O=C(CN1C(=O)c2cccnc2Oc2ccc(Cl)cc21)Nc1cccc(C(F)(F)F)c1`, the survival was inactive: 74%.

Regarding `COc1ccc(C)cc1Nc1cc(C)nc(C)n1`, the survival was inactive: 66%.

For the compound `COc1ccc(N2C(S)=C(C#N)C(=O)NC2c2ccccc2)cc1` (configuration not stated), the survival is inactive: 88%.

Turning to `CCOC(=O)CNc1nc(C(C)(C)C)nc2c1nnn2Cc1ccccc1`, the survival was inactive: 78%.

Regarding `CC(C)Oc1ccc(C(=O)Nc2c(C(=O)Nc3cccc(F)c3)oc3ccccc23)cc1`, the survival is inactive: 70%.

Take `O=C1CSC(=O)N1CCc1ccccc1`: the survival was inactive: 75%.

`CC(=O)Nc1cccc(-n2cc3c(c2-c2ccccc2Cl)c(=O)n(C)c(=O)n3C)c1`: the survival was inactive: 95%.

As for `COc1ccc(-c2cc(C(F)(F)F)nc(SCC(=O)NCC(C)C)n2)cc1OC`, the survival was inactive: 137%.

Take `Cc1ccc(CNC(=O)c2ccc(CS(=O)Cc3cccc(Cl)c3)o2)cc1` (configuration not stated): the survival is inactive: 73%.

`Cc1ccn2c(=O)cc(COc3cccc(NC(=O)Nc4cccc(Cl)c4C)c3)nc2c1`: the survival is inactive: 87%.

Regarding `O=C(Cn1cc(S(=O)(=O)c2ccccc2)c(=O)c2cc(Cl)ccc21)Nc1ccc2c(c1)OCO2`, the survival was inactive: 66%.

Consider `Cc1cc(Nc2cccc(C(F)(F)F)c2)nc2ccc(NC(=O)c3cccc(Cl)c3)cc12`, for which the survival was inactive: 92%.

For `O=C(NCCCN1CCOCC1)c1ccc2c(c1)N(Cc1cccc(Cl)c1)C(=O)c1ccccc1S2`, the survival was inactive: 84%.

As for `O=S(=O)(c1cccc2ccccc12)N1CCN(c2ccc(Cl)c(Cl)c2)CC1`, the survival was inactive: 155%.

As for `COc1ccc(NC(C)=O)cc1NC(=O)CN1CCN(c2ccc(F)cc2)CC1`, the survival is inactive: 84%.

For `CCN1CCN(C(=O)C2CCN(Cc3cc(Cl)ccc3O)CC2)CC1`, the survival was inactive: 100%.

For the compound `O=C(Cc1ccc(-c2ccccc2)cc1)NCCS(=O)(=O)N1CCN(c2ccccc2)CC1`, the survival was inactive: 122%.

In the case of `COc1nc(-c2ccccc2)nc(C)c1CC(=O)O`, the survival was inactive: 108%.

Regarding `COc1cc(NC(=O)CSc2ccc(-c3ccccn3)nn2)cc(OC)c1`, the survival is inactive: 55%.

As to `C#CC1(OC(C)=O)C(C)CN(C)CC1C` (configuration not stated), the survival was inactive: 75%.

`CC(C)c1ccc(S(=O)(=O)N2CCC(N3CCN(Cc4ccccc4)C(=O)C3=O)CC2)cc1`: the survival is inactive: 66%.

For the compound `CC(CCc1ccccc1)NC(=O)Cn1c(=O)nc(-c2ccccc2)c2ccccc21` (configuration not stated), the survival was inactive: 99%.

`Cc1ccc2oc(=O)n(CCCOc3ccccc3Cl)c2c1`: the survival was active: -4%.

Consider `COc1ccccc1-c1noc(-c2ccc(NCC3CCCO3)c([N+](=O)[O-])c2)n1` (configuration not stated), for which the survival is inactive: 108%.

Consider `O=C(NCc1cccnc1)c1cn(Cc2ccccc2)nn1`, for which the survival is inactive: 84%.

Consider `CCc1cccc(NC(=O)CN(C)S(=O)(=O)c2ccc3c(c2)CCCN3C(C)=O)c1`, for which the survival was inactive: 78%.

Regarding `COc1ccc(C2=C(Nc3ccc(C)cc3C)c3ccccc3C2=O)cc1`, the survival was inactive: 71%.

Turning to `CCc1nn2c(=O)c(S(=O)(=O)Nc3ccc(Cl)cc3)c(C)nc2s1`, the survival was inactive: 110%.

As for `Cc1ccccc1Nc1c(-c2cccnc2)nc2ccc(Cl)cn12`, the survival was inactive: 92%.

On to `CCCCN(CCCNC(=O)c1cc(Nc2ccc(OC)c(OC)c2)nc2ccccc12)c1ccccc1`, for which the survival is inactive: 81%.

With `CCOc1ccccc1NS(=O)(=O)c1ccc2c(c1)oc(=O)n2C`, the survival is inactive: 98%.

For the compound `CCN(CC)CCCNC(=O)Cc1csc2nc(-c3ccc(Cl)cc3)cn12`, the survival is inactive: 115%.

For `CCc1cc2c(cc3c(=O)n(CCCC(=O)NCc4cccc(Cl)c4)ncn32)s1`, the survival was inactive: 67%.

On to `Cc1cccc(CCNC(=O)c2cc3c(=O)n(C)c4ccccc4c3n2C)c1`, for which the survival is inactive: 74%.

As to `O=C(CN1C(=O)CCn2nc(-c3ccccc3)cc21)NCc1ccc(Cl)cc1`, the survival is active: 0%.

`Cc1cc2c(n1-c1ccc(C(=O)NCc3ccccc3Cl)cc1)CCCC2`: the survival was inactive: 86%.

Turning to `COc1ccccc1NC(=S)N(CCO)Cc1cc2cc3c(cc2[nH]c1=O)OCCO3`, the survival is inactive: 124%.

For `COc1ccccc1N1CCN(C(=O)c2c(C)oc3ncn(C)c(=O)c23)CC1`, the survival is inactive: 77%.

On to `O=C(CCSCc1ccccc1Cl)NCc1ccc(F)cc1Cl`, for which the survival is active: 8%.

Consider `O=C(CCn1cccn1)Nc1ccc(Br)cc1F`, for which the survival is inactive: 93%.

On to `NC(=O)COc1ccc(/C=N/NC(=O)c2ccc(CN3CCOCC3)cc2)cc1`, for which the survival was inactive: 88%.

In the case of `COc1ccc(CNC(=O)c2ccc3c(c2)N(Cc2c(F)cccc2Cl)C(=O)CS3)cc1`, the survival is inactive: 124%.

As for `CCOC(=O)CSc1nc2ccc(NC(=O)c3cccc(F)c3)cc2s1`, the survival was inactive: 71%.

In the case of `COc1cccc(NC(=O)CN(CCc2ccccc2)S(=O)(=O)c2ccc(Cl)cc2)c1`, the survival was inactive: 52%.

`Cc1nc2ccccc2n1CCc1nc2c3ccccc3nc(SCc3ccc(C#N)cc3)n2n1`: the survival is inactive: 81%.

On to `O=c1c(NCc2cccs2)nccn1-c1ccc(F)cc1`, for which the survival is inactive: 94%.

Regarding `CCOc1ccc(NS(=O)(=O)c2ccc3[nH]c4c(c3c2)CCCCC4)cc1`, the survival is inactive: 89%.

Take `O=S(=O)(NCc1nc2cccnc2n1Cc1ccccc1Cl)c1ccc2c(c1)CCCC2`: the survival was inactive: 94%.

As for `Cc1cccc(-c2nc3c4ccccc4nc(NCCc4ccccc4)n3n2)c1`, the survival is active: 7%.

As to `Cn1nnnc1SCCNCc1cc(Br)ccc1OCc1ccccc1Cl`, the survival is inactive: 57%.

On to `Cc1ccc(C(=O)Nc2cccc3cccnc23)cc1Cl`, for which the survival was inactive: 72%.

In the case of `COC(=O)c1c(-c2cccs2)csc1NC(=O)COc1ccc(C)cc1`, the survival is inactive: 102%.

As for `COc1cccc(OC)c1C(=O)NCCc1csc(-c2ccc(Cl)cc2)n1`, the survival is inactive: 70%.

On to `CC(C)c1cnc2c(c1SCC(=O)NCc1ccccc1Cl)c(=O)n(C)c(=O)n2C`, for which the survival is inactive: 80%.

For `O=C(c1ccc2c(c1)N(Cc1cccc(F)c1)C(=O)c1ccccc1S2)N1CCCC1`, the survival was inactive: 88%.

On to `COc1ccc(C(CC(=O)Nc2ccc(C(C)=O)cc2)N2Cc3ccccc3C2=O)cc1` (configuration not stated), for which the survival was inactive: 69%.

Regarding `Cc1cccc2c1-c1sc(C(=O)N(C)c3cccc(Cl)c3)cc1CO2`, the survival was active: 0%.

On to `Cc1cccc(N2CCN(C(=O)c3noc4c3COc3ccc(C)cc3-4)CC2C)c1` (configuration not stated), for which the survival was inactive: 58%.

In the case of `Cc1ccc(CN2C(=O)c3ccccc3CC2(C)C(=O)NC2CCCCC2)cc1` (configuration not stated), the survival is inactive: 91%.

Consider `CSc1ccc(CCNC(=O)CCc2c(C)nc3ncnn3c2C)cc1`, for which the survival is inactive: 87%.

Turning to `CCOc1ccccc1C(=O)NC1(C(F)(F)F)C(=O)Nc2c1c(=O)[nH]c(=O)n2-c1ccc(F)cc1` (configuration not stated), the survival is inactive: 88%.

`Cc1ccc(Cl)cc1Nc1nn2c(=O)c3ccc(C(=O)NCc4ccc(F)cc4)cc3nc2s1`: the survival is inactive: 116%.

`CCOc1ccc(CNC(=O)Cc2ccc(NC(=O)N3CCSc4ncccc43)cc2)cc1`: the survival was inactive: 96%.

For the compound `Cc1cccn2c(=O)c(C(=O)NCc3cccc(F)c3)cnc12`, the survival was inactive: 87%.

Regarding `CCC(=O)N(Cc1cc(=O)[nH]c2ccccc12)C1CCCCC1`, the survival was inactive: 69%.

For the compound `Cc1cccc(-c2nc3scc(CCNS(=O)(=O)c4ccc5c(c4)OCCO5)n3n2)c1`, the survival was inactive: 85%.

In the case of `Cn1c(=O)c2sccc2n2c(CCC(=O)NCc3ccc(Cl)cc3)nnc12`, the survival was inactive: 183%.

Regarding `COc1ccc(Nc2c(-c3cccc(O)c3)nc3cnccn23)cc1`, the survival was inactive: 66%.

For the compound `CCOC(=O)c1c(Nc2ccc(OC)cc2)nnc(-c2ccccc2)c1-c1ccccc1`, the survival was active: 7%.

As to `CN1CCN(c2ncc3c(n2)CCN(Cc2ccc(Br)s2)C3)CC1`, the survival was inactive: 76%.

In the case of `CCOc1ccc(NC(=O)COc2ccc(S(=O)(=O)NC3CCCCC3)cc2)cc1`, the survival was inactive: 62%.

As to `COc1ccc(-c2csc(=Nc3ccccc3)n2CCO)cc1F`, the survival was inactive: 58%.

With `O=C(N/N=C/C=C/c1ccco1)c1cccs1`, the survival was inactive: 120%.

As for `CCOc1ccc(NC(=O)/C(C#N)=C\c2ccc(-c3ccc(Cl)cc3)o2)cc1`, the survival is inactive: 50%.

Regarding `O=C(CSc1n[nH]c(-c2ccc(F)cc2)n1)NCCc1ccccc1`, the survival is inactive: 108%.

With `Cc1c(Cl)cccc1NC(=O)CCS(=O)(=O)c1ccc2c(c1)CC(=O)N2C`, the survival was inactive: 77%.

As to `Cc1ccc(S(=O)(=O)NCCc2cn3ccsc3n2)c(C)c1`, the survival was inactive: 72%.

For `COc1cccc(NC(=O)Cn2cc(C(=O)c3ccc(C)cc3)c(=O)c3cc(OC)ccc32)c1`, the survival was inactive: 72%.

For `COc1ccccc1-c1cc(C(=O)NCc2ccccc2)c2c(-c3ccc(C)cc3)[nH]nc2n1`, the survival is inactive: 80%.

For `O=C(Nc1ncc(Cc2ccccc2)s1)C1CCCO1` (configuration not stated), the survival was inactive: 101%.

As for `COc1ccc(NC(=O)c2oc3ccccc3c2NC(=O)Cc2coc3c(C)c(C)ccc23)cc1`, the survival is inactive: 74%.

Consider `CC(C)C(c1nnnn1Cc1ccccc1)N1CCC(C(N)=O)CC1` (configuration not stated), for which the survival was inactive: 67%.

Turning to `COc1ccc(-c2nc3cc(NC(=O)CSc4ccc(C)cc4)ccc3o2)cc1`, the survival is inactive: 66%.
